From PubChem BioAssay AID504333 (National Center for Advancing Translational Sciences (NCATS), 2011)
The whole screen tested about 360,000 compounds, of which about 16,000 (4.4%) were called active. Inconclusive results, whose numbers are uncertain, are shown with a selection of clear calls. Calls follow the shape of the dose curve; as a rule, active = well fitted inhibition curve with a large enough effect; inconclusive = small, poorly fitted or top-dose-only effect; inactive = no such curve, though single readings can be large or run the other way. Where the call is inconclusive, the potency comes from a doubtful curve fit.

Each compound was assayed against Bromodomain adjacent to zinc finger domain protein 2B (Homo sapiens) (UniProt Q9UIF8) (assay: qHTS Assay for Inhibitors of BAZ2B). Conditions: AlphaScreen BAZ2B-H3K14Ac peptide displacement; series mostly up to 114 µM.
Procedure, shortened: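 AlphaScreen displacement of biotin-H3(5-23)K14Ac peptide (50 nM final) from BAZ2B (50 nM final) in PBS pH 7.4, 0.01% Tween-20; complex preformed 30 min RT, then compounds (top 110 uM) 30 min RT, beads 20 min dark.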
Also: nearly all actives have a fitted effect of over 60% in size.
Potency is read from the fitted curve at half-maximal effect; tags tell the direction and shape of the fitted curve.

Sequence of UniProt Q9UIF8 (Q9UIF8 whole entry, looked up, the tested form may be a part): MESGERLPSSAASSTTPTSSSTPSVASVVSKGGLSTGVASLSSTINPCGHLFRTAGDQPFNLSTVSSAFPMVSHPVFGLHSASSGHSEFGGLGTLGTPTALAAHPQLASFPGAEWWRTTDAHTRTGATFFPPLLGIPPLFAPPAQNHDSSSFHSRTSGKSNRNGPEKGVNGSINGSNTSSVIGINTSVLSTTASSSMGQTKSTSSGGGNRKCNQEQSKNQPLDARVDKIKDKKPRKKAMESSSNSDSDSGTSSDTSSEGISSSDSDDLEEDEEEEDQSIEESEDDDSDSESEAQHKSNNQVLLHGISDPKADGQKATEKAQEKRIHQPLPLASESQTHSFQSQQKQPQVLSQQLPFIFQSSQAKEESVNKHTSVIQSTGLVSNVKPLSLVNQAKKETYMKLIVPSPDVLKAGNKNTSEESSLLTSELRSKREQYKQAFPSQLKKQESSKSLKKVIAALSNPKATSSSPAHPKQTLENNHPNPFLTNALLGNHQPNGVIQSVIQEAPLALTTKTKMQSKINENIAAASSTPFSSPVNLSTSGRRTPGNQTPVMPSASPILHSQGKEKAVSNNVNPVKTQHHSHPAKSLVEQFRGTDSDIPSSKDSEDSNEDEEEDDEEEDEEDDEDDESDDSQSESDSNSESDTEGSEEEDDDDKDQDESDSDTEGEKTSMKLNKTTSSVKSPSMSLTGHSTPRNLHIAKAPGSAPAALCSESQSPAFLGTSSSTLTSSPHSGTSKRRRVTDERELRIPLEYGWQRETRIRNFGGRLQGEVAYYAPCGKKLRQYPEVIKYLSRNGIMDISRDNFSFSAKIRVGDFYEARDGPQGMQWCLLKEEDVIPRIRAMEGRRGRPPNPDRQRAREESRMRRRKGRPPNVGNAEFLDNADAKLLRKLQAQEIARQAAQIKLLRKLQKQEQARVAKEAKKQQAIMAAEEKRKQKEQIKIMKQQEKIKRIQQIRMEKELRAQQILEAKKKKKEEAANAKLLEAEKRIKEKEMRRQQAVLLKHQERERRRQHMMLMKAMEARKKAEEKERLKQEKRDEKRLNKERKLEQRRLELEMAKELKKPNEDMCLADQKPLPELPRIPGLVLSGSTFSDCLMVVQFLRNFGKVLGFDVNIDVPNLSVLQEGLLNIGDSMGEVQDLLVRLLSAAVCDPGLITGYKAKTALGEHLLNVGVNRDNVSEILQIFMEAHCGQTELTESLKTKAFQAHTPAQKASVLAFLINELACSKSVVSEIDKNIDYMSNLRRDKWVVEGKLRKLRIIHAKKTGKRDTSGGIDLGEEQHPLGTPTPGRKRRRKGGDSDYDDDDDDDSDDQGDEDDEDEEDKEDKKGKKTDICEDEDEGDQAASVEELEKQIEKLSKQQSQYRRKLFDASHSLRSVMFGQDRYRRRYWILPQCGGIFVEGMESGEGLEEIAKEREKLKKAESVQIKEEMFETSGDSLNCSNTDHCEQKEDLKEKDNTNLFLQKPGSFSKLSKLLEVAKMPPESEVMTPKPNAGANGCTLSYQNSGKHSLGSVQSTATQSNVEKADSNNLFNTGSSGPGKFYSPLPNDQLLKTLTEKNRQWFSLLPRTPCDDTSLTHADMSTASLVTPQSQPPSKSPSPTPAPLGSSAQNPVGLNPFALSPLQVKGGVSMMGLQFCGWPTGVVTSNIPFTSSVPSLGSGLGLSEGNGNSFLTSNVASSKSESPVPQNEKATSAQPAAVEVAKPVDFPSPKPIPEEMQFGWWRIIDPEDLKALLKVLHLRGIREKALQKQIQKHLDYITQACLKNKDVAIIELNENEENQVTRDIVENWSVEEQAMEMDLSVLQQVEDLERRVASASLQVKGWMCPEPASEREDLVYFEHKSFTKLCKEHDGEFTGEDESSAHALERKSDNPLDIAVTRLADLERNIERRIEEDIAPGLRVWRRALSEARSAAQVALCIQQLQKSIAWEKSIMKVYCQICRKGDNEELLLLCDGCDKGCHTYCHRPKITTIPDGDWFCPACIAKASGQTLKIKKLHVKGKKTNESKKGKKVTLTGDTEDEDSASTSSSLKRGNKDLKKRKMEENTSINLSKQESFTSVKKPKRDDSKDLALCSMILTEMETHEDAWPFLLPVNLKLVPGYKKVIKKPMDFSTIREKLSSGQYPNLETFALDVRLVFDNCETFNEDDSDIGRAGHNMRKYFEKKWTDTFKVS

Row | Structure (SMILES) | Potency
1 | Cc1ccc(/C=N/Nc2nnc(Cc3ccccc3)c(=O)[nH]2)o1 | inconclusive: 89.1 µM [inhibitor, single point]
2 | Cc1oc2ccc(O)c(CN3CCCCCC3)c2c1C(=O)Nc1cccc(C(F)(F)F)c1 | inconclusive: 28.2 µM [inhibitor, full curve]
3 | COc1cc(NC(=O)c2ccccc2F)c(OC)cc1NC(=O)CN1CCCCC1 | inconclusive: 89.1 µM [inhibitor, single point]
4 | CCOC(=O)c1c(C)n(C)c2ccc(OC)c(NC(=O)CN3CCN(Cc4ccccc4)CC3)c12 | inactive
5 | O=C(Nc1nc2ccccc2n1CCN1CCCC1)C1CCCCC1 | active: 50.1 µM
6 | Cc1ccc(C)c(N2CCN(C(=O)Cn3nc(C)c4sc5ccccc5c4c3=O)CC2)c1 | inconclusive: 14.1 µM [inhibitor, full curve]
7 | CC1(C)CC(c2nc(-c3ccc([N+](=O)[O-])cc3)cs2)CCO1 (stereo not given) | inconclusive: 56.2 µM [inhibitor, partial curve, poor fit]
8 | CCOc1ccc(NC(=O)c2c(NCc3cccs3)sc3c2CCC(C)C3)cc1 (stereo not given) | inactive
9 | CC1CCc2[nH]c3ccc(C(=O)N4CCCC(C(F)(F)F)C4)cc3c2C1 (stereo not given) | active: 31.6 µM
10 | Cc1cc(F)ccc1NCC(=O)Nc1ccc(Br)cc1C | inconclusive: 89.1 µM [inhibitor, single point]
11 | COc1ccc(N2CCN(CC(O)COc3c(OC)cccc3OC)CC2)cc1 (stereo not given) | active: 79.4 µM
12 | COc1ccc(-c2cnc(N)nc2-c2ccc(OCc3ccccc3)cc2O)cc1 | inconclusive: 28.2 µM [inhibitor, partial curve]
13 | CCN(CC)S(=O)(=O)c1ccc(N2CCCCC2)c(NC(=O)c2ccncc2)c1 | inactive
14 | COc1cc(/C=N/NC(=O)c2ccncc2)ccc1OCC(=O)Nc1ccccc1 | inactive
15 | CCOC(=O)C1CCN(C(=O)Cc2ccc(OC)c(OC)c2)CC1 | inconclusive: 100 µM [inhibitor, single point]
16 | Cc1cccc(CN2CCc3c([nH]c4ccccc34)C2CC(C)C)n1 (stereo not given) | inconclusive: 89.1 µM [inhibitor, single point]
17 | O=C(COC(=O)COc1ccc(Cl)cc1)Nc1ccc(F)c([N+](=O)[O-])c1 | inconclusive: 79.4 µM [inhibitor, single point]
18 | CC1=NN(c2ccc(Br)cc2)C(=O)/C1=C/c1ccc(-c2ccccc2C(=O)O)o1 | active: 35.5 µM
19 | Nc1ccc(Nc2ccccc2N)cc1 | active: 35.5 µM
20 | O=[N+]([O-])c1ccc(NC(=S)NCCc2ccccc2)cc1 | inconclusive: 35.5 µM [inhibitor, partial curve]
